# Some of the results follow. At the low end of the ranking, values are background and their order means little.
# Test system: MYC (p64) + MAX (p21), in MYC:MAX
# Test: protein-binding microarray (anti-MAX antibody)
# Conditions: PBM: 15 mM Tris-HCl pH 7.5, 100 mM KCl, 0.075% NP40, 7.5 mM beta-mercaptoethanol, 375 ng/ul BSA, 8 ng/ul poly(dA-dT):(dA-dT), 550 ng complex, 60 min, room …; high values mean tight binding; double strand, one strand shown; sequences stand for … in CCGGC…TTAATAGCTAAGATTACTATATCGACG
row,Sequence,binding signal (log2 normalized fluorescence)
1,TGACTTTCGGTA,-0.076
2,TGACCTCCTGTA,0.384
3,TGACGACTTGTA,-0.0481
4,TGAGGGGTCGTA,0.386
5,TGATCGACTGTA,-0.153
6,TGAGTCGACGTA,0.0636
7,GGACACTTGGTA,0.32
8,TGAGCGGACGTA,-0.0167
9,TGATCTCAGGTA,0.00788
10,TGACTCTATGTA,-0.00932
11,TGAGTACGAGTA,-0.0398
12,TGATGGAAGGTA,0.109
13,TGAACGTTAGTA,0.206
14,TGACCTTTTGTA,-0.012
15,TGACTACAAGTA,0.0188
16,TGATAACTCGTA,0.125
17,TGATGCAGTGTA,0.00507
18,TGATGTTCGGTA,0.113
19,TGAATGCTGGTA,0.126
20,TGAACTGGAGTA,-0.0589
21,TGGCAGGTGGTA,0.416
22,TGAAGTTAAGTA,-0.144
23,TGAGAGCGTGTA,0.498
24,TGATTGAGAGTA,-0.276
25,TGAGATTGTGTA,-0.0377

row,Sequence,binding signal (log2 normalized fluorescence)
1,TGATCCACTGTA,0.076
2,TGAATCAAGGTA,0.109
3,TGAAGGTGCGTA,0.236
4,TGACACAGCGTA,0.201
5,TGAATAACGGTA,-0.0655
6,TGACTTCCAGTA,0.0624
7,TGGCCCGTTGTA,-0.0579
8,TGAAGACTCGTA,0.0662
9,TGAACATTGGTA,0.289
10,TGAAGTCGTGTA,0.228
11,TGAAGCTAAGTA,-0.283
12,TGACTCGATGTA,0.337
13,GACCACGTGGTA,0.741
14,TGAGCGTTGGTA,0.234
15,TGAGAGTTCGTA,-0.215
16,TGATAAGCTGTA,-0.106
17,CATCACGTGGTA,0.764
18,TGACACGGCATA,0.297
19,TGAATTGTTGTA,0.0647
20,TGAGACACCGTA,0.145
21,TGACTGGGTGTA,0.195
22,TGACATGTCGTA,0.416
23,TGACGGCAGGTA,-0.00507
24,TGACCATGAGTA,0.373
25,TGAATCTCTGTA,-0.00748

row,Sequence,binding signal (log2 normalized fluorescence)
1,TGATAGCTAGTA,-0.158
2,TGAACTTCGGTA,-0.0261
3,TGATGTATCGTA,0.124
4,TGAAGCACCGTA,0.16
5,TTACACGGGGTC,0.666
6,TGATCCCTGGTA,0.0924
7,TGATTCACCGTA,0.084
8,TGAGGAGCGGTA,0.0241
9,TGAAGTCTCGTA,0.103
10,TGATGCGTGGTA,0.425
11,TGAACTGTCGTA,0.131
12,TGACGCATCGTA,0.152
13,TGAGATAGGGTA,-0.108
14,TGACGTTTTGTA,-0.0354
15,TGAATGACTGTA,0.156
16,TGATCCAACGTA,0.112
17,TGTCATGTGGTA,0.631
18,CCGCACGTGGTA,0.749
19,TAGAACGTGGTA,0.512
20,TGACACTTGGTA,0.134
21,TGAGTGCTGGTA,0.0362
22,TTACCCGTGGTA,0.282
23,TGACTAAGGGTA,-0.0349
24,TGAACACCCGTA,0.244
25,TGATGGCCTGTA,0.18

row,Sequence,binding signal (log2 normalized fluorescence)
1,TGACGCCATGTA,0.354
2,TGACATTTTGTA,0.00501
3,TGAGATACAGTA,-0.0352
4,TGAGTCTATGTA,-0.0268
5,TGACGTTCTGTA,0.244
6,TGATGCATTGTA,0.224
7,TGATTTTGCGTA,-0.135
8,TGACGCTCAGTA,0.147
9,TGACAACCCGTA,0.233
10,TGACGCAACGTA,0.299
11,TGATAGCACGTA,0.212
12,TGACTGCACGTA,0.216
13,TGATACTGGGTA,-0.221
14,TGATTCGCGGTA,-0.0184
15,TGACCTCCCGTA,0.167
16,TGATTCCGAGTA,-0.0488
17,TGATTAATAGTA,-0.0543
18,TGAAATCGAGTA,-0.0164
19,TGAAATTGAGTA,-0.078
20,TGACTATAAGTA,-0.0234
21,TGAAATCTCGTA,-0.0492
22,TGAAGAGTGGTA,0.152
23,TGACACGTACGA,0.276
24,TGATCTGAAGTA,0.0504
25,CGACCCGTGGTT,0.28

row,Sequence,binding signal (log2 normalized fluorescence)
1,TGAATATGAGTA,-0.114
2,TGATCAAGGGTA,0.0432
3,TGAAAAGCAGTA,-0.0179
4,TGAAATCTAGTA,-0.187
5,TGATCGCCGGTA,-0.0432
6,TGACGTCTAGTA,-0.00371
7,TGACACGCTGTA,0.477
8,CGTTACCCTGTG,0.0441
9,TGATGACTAGTA,0.0752
10,TTACAGGTGGTA,0.554
11,TGAGGGGTAGTA,0.257
12,CGACTCGGGGTT,0.16
13,TGAAGAGCCGTA,-0.0183
14,TGACGCGTAGTA,0.326
15,TGACTCCTCGTA,0.0901
16,TGAGAATTTGTA,-0.254
17,TGACCTAGTGTA,0.257
18,TGAAAAGCGGTA,0.0993
19,TGATAGGCAGTA,-0.124
20,TAATATGGGGTT,0.347
21,TGACAATCAGTA,0.0985
22,TGAAAGAGTGTA,0.0309
23,TGATTCACTGTA,0.149
24,TGAGACACTGTA,0.191
25,TGAGAATAAGTA,-0.282

row,Sequence,binding signal (log2 normalized fluorescence)
1,TGACTGTGCGTA,0.309
2,TGATAATAGGTA,-0.135
3,TGAAAGGTAGTA,-0.0853
4,TGACCGGTAGTA,-0.0532
5,TGAAGATTAGTA,-0.0685
6,TGATGCCCAGTA,0.07
7,TGAACATAGGTA,0.161
8,TGACTGGCGGTA,-0.0112
9,TGATAGTCTGTA,0.068
10,TGACACGTTGTC,0.619
11,TGAACGAGGGTA,0.254
12,TGATCTGGCGTA,-0.126
13,TGACACGTGTAC,0.823
14,TGACGGTACGTA,0.0942
15,TGATTTAGTGTA,0.00668
16,TGACGTGAGGTA,0.455
17,AATTCGGAACAG,0.132
18,TGAACTATAGTA,0.0698
19,TGAAGGAATGTA,0.0682
20,TGAGTCTTGGTA,-0.116
21,TGACAAGAGGTA,0.126
22,TGAAGAGTCGTA,-0.115
23,TGAGTCTCCGTA,-0.254
24,TGAGGATCTGTA,-0.115
25,TGAAGATCTGTA,-0.0224

row,Sequence,binding signal (log2 normalized fluorescence)
1,TGATTACAGGTA,0.00407
2,TGAGTAACGGTA,-0.0861
3,TGATGACCTGTA,0.232
4,TGAGAGCAGGTA,0.0373
5,TGAACCCAAGTA,0.296
6,TGAGGGTAAGTA,0.0547
7,GTCCACGTGGTA,0.808
8,TGACCGCGTGTA,0.802
9,TGAGCCGCCGTA,-0.082
10,TGACAGAATGTA,0.243
11,CGACCCGGGGTA,0.0817
12,TGAAGTGGGGTA,0.177
13,TGAACCTGAGTA,0.125
14,TGATTGCGCGTA,0.147
15,TGAATAAATGTA,0.052
16,TGACGCGAAGTA,0.131
17,TGACCGTTGGTA,0.072
18,TGACCATTTGTA,0.0484
19,TGACGGCTAGTA,0.178
20,TGTCACTTGATA,0.183
21,TGAGAGATAGTA,-0.117
22,TGACAGTCCGTA,-0.0613
23,TGATAGCGAGTA,0.124
24,TGACACGTAGAG,0.293
25,TGATCCCTCGTA,0.112

# Reference: PMC5515408
